Test results as given in PubChem BioAssay AID624417 (National Center for Advancing Translational Sciences (NCATS), 2012).
Screen size: about 410,000 compounds; about 6,400 (1.6%) were called active. Inconclusive means that the source gave no clear call. Such entries were picked first, then a sample of the others. Calls come from the whole dose curve; as a rule, active = well fitted inhibition curve with a large enough effect; inconclusive = small, poorly fitted or top-dose-only effect; inactive = no such curve, though single readings can be large or run the other way. Potencies of inconclusive entries are left out as doubtful fits.

Biological target: Glucagon-like peptide 1 receptor (Homo sapiens) (UniProt P43220)
UniProt P43220, sequence (P43220 whole entry, looked up): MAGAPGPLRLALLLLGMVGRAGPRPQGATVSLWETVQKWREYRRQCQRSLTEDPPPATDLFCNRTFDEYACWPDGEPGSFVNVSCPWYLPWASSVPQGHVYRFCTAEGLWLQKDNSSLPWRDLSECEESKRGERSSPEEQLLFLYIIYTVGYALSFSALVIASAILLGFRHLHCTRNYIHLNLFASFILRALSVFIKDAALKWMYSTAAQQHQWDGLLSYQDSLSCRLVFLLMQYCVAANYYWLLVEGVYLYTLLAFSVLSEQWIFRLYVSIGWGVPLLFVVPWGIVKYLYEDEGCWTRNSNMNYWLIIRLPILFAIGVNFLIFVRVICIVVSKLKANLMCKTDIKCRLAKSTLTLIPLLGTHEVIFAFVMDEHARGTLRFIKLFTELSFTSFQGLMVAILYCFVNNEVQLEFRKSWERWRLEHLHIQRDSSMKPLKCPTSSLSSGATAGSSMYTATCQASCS
Assay: qHTS of GLP-1 Receptor Inverse Agonists (Inhibition Mode); note: nearly all actives have a fitted effect of over 55% in size
Details: HEK293 GLP-1R CRE-luciferase, luminescence, 24 h, GLP-1R form is constitutively active; activity change, negative = inhibition: at 38.3 µM (top of the series) unless noted
Method in brief: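 Using stably transfected HEK293 (constitutively active GLP-1R, cAMP-luciferase reporter), compounds were incubated 24 hr and luciferase measured by luminescence.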
% is set by controls: 0 for no effect and ±100 for the full control effect; potency is the fitted concentration of half-maximal effect; tags give direction and shape of the fitted curve.

SMILES	Potency	activity change, negative = inhibition
CC(CC(=O)N1CCN(c2cccc(Cl)c2)CC1)S(=O)(=O)c1ccc2c(c1)NC(=O)CO2 (centres undefined)	inconclusive [inhibitor, single point]	–
Cc1ccccc1Cc1c(C)nc2nc(SCC(=O)NCc3ccco3)nn2c1C	inconclusive [inhibitor, single point]	–
O=C(CN1C(=O)/C(=C/c2ccccc2F)Sc2ccccc21)N1CCN(c2ccccn2)CC1	inconclusive [inhibitor, single point]	–
CCc1ccc(NC(=O)Nc2ccc3c(c2)CCC3)cc1	–	inactive: 1.94%
NS(=O)(=O)c1cccc(NC(=O)c2cc(-c3cccs3)nc3ccccc23)c1	inconclusive [inhibitor, single point]	–
OC(COc1ccccc1Cl)CN1CCN(CC(O)COc2ccccc2Cl)CC1 (centres undefined)	inconclusive [inhibitor, partial curve, poor fit]	–
O=C(NCc1cccc(C(F)(F)F)c1)C1CC(c2ccccc2[N+](=O)[O-])=NO1 (centres undefined)	inconclusive [inhibitor, partial curve, poor fit]	–
COc1ccc(Cc2nc3ccccc3n2Cc2ccccc2F)cc1	inconclusive [inhibitor, full curve, poor fit]	–
CCCCNC(=S)N(CCN(CC)CC)Cc1cc2cc3c(cc2[nH]c1=O)OCCO3	inconclusive [inhibitor, single point]	–
CC(C)CN1C(=S)SC(C)(C)C1n1oc(=O)n(-c2ccc(Cl)cc2)c1=O (centres undefined)	inconclusive [inhibitor, single point]	–
Cc1cccc(NC(=O)COC(=O)c2ccc3nc(C)c(C)nc3c2)c1	–	inactive: 19.4%
Cc1ccc(-c2ccc(/C=C(\C#N)C(N)=S)o2)c([N+](=O)[O-])c1	inconclusive [inhibitor, single point]	–
O=C(O)c1ccc(N/N=C/c2cc3ccccc3nc2Cl)cc1	–	inactive: 57.7%
COCCN(C(=O)COC(=O)/C=C/c1nc2ccccc2s1)c1c(N)n(Cc2ccccc2)c(=O)[nH]c1=O	inconclusive [inhibitor, single point]	–
Cc1cc(C)nc(SCC(=O)Oc2ccc3oc(=O)cc(C)c3c2)n1	–	inactive: 6.05%
Cc1ccccc1CSc1ncc(CO)n1Cc1ccc(F)cc1	–	inactive: -14%
CC(=O)Nc1ccc(S(=O)(=O)NCC2CCC(C(=O)NCCCN(C)Cc3ccccc3)CC2)cc1 (centres undefined)	inconclusive [inhibitor, single point]	–
Cc1sc(NC(=O)/C=C/C(=O)O)c(C(N)=O)c1-c1ccc(C(C)(C)C)cc1	inconclusive [inhibitor, full curve, poor fit]	–
CC1=NN(C(=O)c2ccccc2-n2cccc2)C(O)(C(F)(F)F)C1 (centres undefined)	inconclusive [inhibitor, full curve]	–
NC(=S)N/N=C\c1ccccc1OCc1ccccc1	active: 5.62 µM	–
CCNC(=O)COC(=O)c1cc(-c2ccc(OC)cc2)nc2ccccc12	–	inactive: 0%
COc1ccc2c(c1)cc1c(=O)n(CC(=O)NCCCc3ccccc3)nc(C)n12	–	inactive: 1.28%
CCOCCCNC(=S)NNC(=O)CCn1nc(C)c(Br)c1C	active: 5.62 µM	–
CCCCCCCCN1C(=O)[C@H](CC(=O)NCc2cccs2)C[C@@]2(C(=O)OCC)CCCC=C12	active: 10 µM	–
COc1ccc(NC(=S)NN2C(C)CCCC2C)cc1 (centres undefined)	inconclusive [inhibitor, partial curve, poor fit]	–
COC(=O)c1ccc(Cn2nnc3c(=O)[nH]c(C4CCCN(S(=O)(=O)c5cccc(Cl)c5)C4)nc32)cc1 (centres undefined)	inactive	–
COC(=O)C(Cc1ccc(OC(=O)c2ccccc2C)cc1)N1Cc2ccccc2C1=O (centres undefined)	inconclusive [inhibitor, partial curve]	–

SMILES	Potency	activity change, negative = inhibition
Clc1ccc(-c2nnc(NCCN3CCCC3)c3ccccc23)cc1	inconclusive [inhibitor, partial curve, poor fit]	–
CC1CCCN(c2ccc(C(=O)Nc3ccc4c(c3)OCO4)cc2[N+](=O)[O-])C1 (centres undefined)	inconclusive [inhibitor, full curve, poor fit]	–
CC(C)(C)c1ccc(-c2noc(CNC(=O)c3ccco3)n2)cc1	inconclusive [inhibitor, partial curve, poor fit]	–
O=C(c1ccc(-c2ccccc2)cc1)N1CCN(c2ccccc2)CC1	–	inactive: 21.6%
CCCC(=O)NC(=S)Nc1cccc(Cl)c1N1CCCC1	inconclusive [inhibitor, single point]	–
CCCCN(C=O)c1c(CC)nc2c(OCCn3cccc3)cccn12	–	inactive: 9.47%
O=C(OCc1cccc([N+](=O)[O-])c1)c1cc2ccccc2oc1=O	–	inactive: 2.88%
O=C(C1CC1)N1CCN(c2ccc([N+](=O)[O-])cc2-n2cccc2)CC1	inconclusive [inhibitor, single point]	–
CCN(c1ccccc1)c1nnc(NC(=O)Nc2ccc(Br)cc2F)s1	–	inactive: 12.1%
CCOc1ccc(NS(=O)(=O)c2ccc(C(=O)NCC(c3ccco3)N3CCCCC3)cc2)cc1 (centres undefined)	inconclusive [inhibitor, single point]	–
CCOc1cc(S(=O)(=O)N(CC)CC)ccc1Br	inconclusive [inhibitor, single point]	–
Cc1cccc(CSCCNC(=O)CSCc2ccc([N+](=O)[O-])cc2)c1	inconclusive [inhibitor, single point]	–
CN(CC(=O)Nc1ccc(Cl)c(Cl)c1)CC(=O)Nc1ccc2c(c1)OCO2	inconclusive [inhibitor, partial curve, poor fit]	–
Cc1ccc(NC(=O)c2nc[nH]c2C(=O)N[C@@H](C)C(=O)OC(C)(C)C)cc1	inconclusive [inhibitor, single point]	–
CCOc1ccc2c(c1)NC(c1cccs1)=NC(c1ccc(F)cc1)=N2	inconclusive [inhibitor, single point]	–
COc1ccc(Cl)cc1NC(=O)CN(C)C(=O)c1ccc(C)s1	active: 5.62 µM	–
COc1cccc(CNCc2cccc(Br)c2)c1OC	inconclusive [inhibitor, partial curve]	–
NS(=O)(=O)c1ccc(CCNC(c2ccccc2)c2ccccc2)cc1	inconclusive [inhibitor, full curve]	–
O=C(O)c1ccccc1SCc1cn2ccccc2n1	–	inactive: 10.5%
C/C(CC(=O)Nc1ccc([N+](=O)[O-])cc1)=N/NC(=O)C1C2CCCCC21 (centres undefined)	inconclusive [inhibitor, single point]	–
OC(c1ccccc1)(c1nc(/C=C/c2ccc(C(F)(F)F)cc2)cs1)C(F)(F)F (centres undefined)	active: 7.94 µM	–
CC(CCCN1CCCC1)Nc1ccnc2cc(Cl)ccc12 (centres undefined)	inconclusive [inhibitor, full curve, poor fit]	–
Cn1c(/C=N/n2cnnc2)nc2ccccc21	–	inactive: -14%
CCOC(=O)N1CCN(c2ccc(S(=O)(=O)N3CCC(C)CC3)cc2[N+](=O)[O-])CC1	inconclusive [inhibitor, single point]	–
O=C(C[C@@H]1C/C=C\C[C@@H](Cc2ccc(F)cc2)C(=O)OC[C@@H]2CCCN2C1=O)NCCO	–	inactive: 1.33%
Cc1cc(-c2ccc(C(C)C)c(S(=O)(=O)NCCN3CCC(C)CC3)c2)on1	inconclusive [inhibitor, partial curve, poor fit]	–
COc1ccc(CN2C[C@H]3CON(C)[C@H]3C[C@H]2c2ccc(-c3ccccc3)cc2)cc1	inconclusive [inhibitor, partial curve, poor fit]	–
